Drawing on article PMC7819943, “Rice protein-binding microarrays: a tool to detect cis-acting elements near promoter regions in rice”, this text covers binding signal for 42 sequences.

Some of the results follow.

For the experiment, the target named is T1, OsWOX13 (Oryza sativa, UniProt Q5QMM3 1-267).
T1 sequence: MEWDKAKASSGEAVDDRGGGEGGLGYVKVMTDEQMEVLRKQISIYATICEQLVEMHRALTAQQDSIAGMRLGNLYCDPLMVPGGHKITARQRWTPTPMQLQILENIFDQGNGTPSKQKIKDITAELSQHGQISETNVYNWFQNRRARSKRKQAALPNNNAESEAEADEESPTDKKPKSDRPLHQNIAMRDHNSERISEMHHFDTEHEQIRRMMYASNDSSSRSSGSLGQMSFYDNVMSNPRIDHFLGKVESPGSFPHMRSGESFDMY
Kind of experiment: protein-binding microarray (RPBM); PBS, 2% BSA, 51.3 ng/ul salmon testes DNA, 50 uM zinc acetate, 200 nM TF, 25 C, 1 h; high values mean tight binding. The note with it: protein: recombinant; tags: N-terminal polyhistidine and DsRed monomer fusion (pET32a); label: CyDye5-dUTP incorporated in the synthesized complementary strand; 3' TTTTT single-stranded linker to array surface; dsDNA, one strand shown. Put shortly:
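In PBS with 2% BSA, salmon testes DNA and 50 µM zinc acetate, 200 nM protein was incubated on a custom Agilent array at 25 °C for 1 h and then washed off. The array had been made double-stranded by primer extension with Cy5-dUTP and blocked with 2% BSA. The proteins were transcription factors fused N-terminally to polyhistidine and DsRed, expressed in E. coli BL21-CodonPlus and purified on Ni–NTA. The binding signal is per-feature fluorescence intensity (arbitrary units) from an Axon 4000B scanner.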
Take “AGTAATTATAATATGTCTATTATATCAGTTGGCTATAATGCGGAGTCACCTAGTGCAG”: the binding signal was 32100 fluorescence intensity (a.u.).

Regarding “TAAATTAATTAATTAGGTATAAATGTAATTAAGCACATCGCGGAGTCACCTAGTGCAG”, the binding signal is 55000 fluorescence intensity (a.u.).

“AAAATAGAATGCCAATTTTGTCCAAATTTCCCAGGTACCGCGGAGTCACCTAGTGCAG”: the binding signal was 15700 fluorescence intensity (a.u.).

For “ATCTAATCAAGCACAACTCCAGTTCCTGCTTACTGCCACCCGGAGTCACCTAGTGCAG”, the binding signal is 5400 fluorescence intensity (a.u.).

As for “TGCATAATTCAAATCAATCGACATCGTTCATGTGCTTCAGCGGAGTCACCTAGTGCAG”, the binding signal was 10500 fluorescence intensity (a.u.).

On to “ATAGGTTAATTTGCATAAATGCCAATTTTAGTTCACAACACGGAGTCACCTAGTGCAG”, for which the binding signal is 10300 fluorescence intensity (a.u.).

On to “CTCCAATCCAATCATCATCGATCAGTACTACTGTGACCAACGGAGTCACCTAGTGCAG”, for which the binding signal was 23600 fluorescence intensity (a.u.).

With “AGAAATAATTACCCAATTACTACTACTAGTGCTAACATATCGGAGTCACCTAGTGCAG”, the binding signal is 31100 fluorescence intensity (a.u.).

Consider “GCATGATATGATTCCTCCTGCTTTGATTCCAGTACATGTCCGGAGTCACCTAGTGCAG”, for which the binding signal is 4020 fluorescence intensity (a.u.).

For the sequence “GGTGGTGCATTTCATCAATCAGGTTTGAAACTCTGAATATCGGAGTCACCTAGTGCAG”, the binding signal is 9870 fluorescence intensity (a.u.).

Regarding “TTAATTAATTGCTAATTACACTAATTAATTTATTGATAGCCGGAGTCACCTAGTGCAG”, the binding signal is 65200 fluorescence intensity (a.u.).

Take “TAAGCCTAATTAATCTATTATTAGCAAATGTTTACTATAGCGGAGTCACCTAGTGCAG”: the binding signal was 6510 fluorescence intensity (a.u.).

Turning to “GCTGACATATAGTCAACCGGCTGTTACTTGCATCCGAACACGGAGTCACCTAGTGCAG”, the binding signal is 4720 fluorescence intensity (a.u.).

Regarding “GATAATGGCCCTTAAATTGATTGCAACTCACGGTGATACACGGAGTCACCTAGTGCAG”, the binding signal is 44800 fluorescence intensity (a.u.).

Regarding “TATATATATATATATATATATATATATATGAGAAGGTTACCGGAGTCACCTAGTGCAG”, the binding signal is 11900 fluorescence intensity (a.u.).

Consider “TTGATTGATTTGTTTGCACTCCATGAAATAAGTGAGGGCTCGGAGTCACCTAGTGCAG”, for which the binding signal is 65200 fluorescence intensity (a.u.).

Take “TTGTGTGCTTCAATTTAATTTGTATCTCAAATTCTTTCAGCGGAGTCACCTAGTGCAG”: the binding signal was 4340 fluorescence intensity (a.u.).

In the case of “GGCACCTCTATGATTGATGGTTACATTGAGACCGATTGTGCGGAGTCACCTAGTGCAG”, the binding signal was 46900 fluorescence intensity (a.u.).

Turning to “TTCAATTAGTTACATATCAATTGCTGGTTTACAGAGTTGGCGGAGTCACCTAGTGCAG”, the binding signal was 15000 fluorescence intensity (a.u.).

For “TAGAACAACCAATCAAACAAATATGCTGTTCATTGTTGAACGGAGTCACCTAGTGCAG”, the binding signal was 10400 fluorescence intensity (a.u.).

With “ATATTAAATTTATAGTTTTACGATAATTTGACCAATATATCGGAGTCACCTAGTGCAG”, the binding signal was 8760 fluorescence intensity (a.u.).

In the case of “CTAACTAATCTAATCTCCCTCCTGTATCTTGCGCGGTTGGCGGAGTCACCTAGTGCAG”, the binding signal was 6470 fluorescence intensity (a.u.).

For the sequence “GATCTGATTGAGACATATCTGAAAATAATTTGCACGCAGACGGAGTCACCTAGTGCAG”, the binding signal is 30600 fluorescence intensity (a.u.).

Regarding “TCCAAAGGAAATCGTGACTTAATTAACACCATTTCTCTACCGGAGTCACCTAGTGCAG”, the binding signal was 3880 fluorescence intensity (a.u.).

Regarding “AAGGTAATTAAGGTCGATGGAATTTCTCAGATTAAATGGCCGGAGTCACCTAGTGCAG”, the binding signal was 24200 fluorescence intensity (a.u.).

As to “TTTCATATTATAAATCAAATTTGTTTAGCTTTGACAATGTCGGAGTCACCTAGTGCAG”, the binding signal is 11100 fluorescence intensity (a.u.).

“TGTATAATTTTGTGATTTGCTGTATGGATCTGAGATGTATCGGAGTCACCTAGTGCAG”: the binding signal is 32700 fluorescence intensity (a.u.).

Consider “CTACCCTCTTGTGATTAGATAATGCAGTGGTTCTCTGAACCGGAGTCACCTAGTGCAG”, for which the binding signal was 4680 fluorescence intensity (a.u.).

As to “AGGATCAAAATTGCATGATTTTGTATAGTTTAGGGATGAACGGAGTCACCTAGTGCAG”, the binding signal was 3210 fluorescence intensity (a.u.).

As for “CTAGATTAGTCCTCCCTATCCTTGATAATTACGCACGCTCCGGAGTCACCTAGTGCAG”, the binding signal was 22800 fluorescence intensity (a.u.).

On to “ACGATTGAACTAGTTTAGTGGGTCCCTATTAGGTTATCTTCGGAGTCACCTAGTGCAG”, for which the binding signal is 4670 fluorescence intensity (a.u.).

Consider “TACTGTAATGTAATTACAATATAACTACATTGTAATCTCTCGGAGTCACCTAGTGCAG”, for which the binding signal was 12100 fluorescence intensity (a.u.).

Turning to “TTCCAATGTTAATTGTTTGCAAATTGTCATTGTTTGCTGGCGGAGTCACCTAGTGCAG”, the binding signal is 28000 fluorescence intensity (a.u.).

For “GGTCAAATTTAAACTTGTATGTTAGTGTAGTGATATCTCACGGAGTCACCTAGTGCAG”, the binding signal was 7670 fluorescence intensity (a.u.).

Turning to “TTAATTTATATTAGAGTTTACATATATACTCCCTCCATCTCGGAGTCACCTAGTGCAG”, the binding signal is 11300 fluorescence intensity (a.u.).

For the sequence “TATTACCTTAATTTCCTACTAATCGTAGTAGGCTGCTACTCGGAGTCACCTAGTGCAG”, the binding signal is 4860 fluorescence intensity (a.u.).

With “GGATTGGTACGTCTAAATTCAATTAATGTGTAGTATGTTCCGGAGTCACCTAGTGCAG”, the binding signal was 6100 fluorescence intensity (a.u.).

Regarding “GTGTTATCTGTAAGGCTGTAATTGAACTTGCTTGTGATGTCGGAGTCACCTAGTGCAG”, the binding signal is 3470 fluorescence intensity (a.u.).

“CAGGTTATTTCACAGGATTGATCAGGACAATGATGGAAAGCGGAGTCACCTAGTGCAG”: the binding signal is 8170 fluorescence intensity (a.u.).

In the case of “TACAATTGATTATGTAAAGTTTGTGTCTTGTACTAGAGGGCGGAGTCACCTAGTGCAG”, the binding signal is 43900 fluorescence intensity (a.u.).

As to “ATAAATGGCTAACCCTGATTATTTTACAGGCGAATCGCTTCGGAGTCACCTAGTGCAG”, the binding signal was 10900 fluorescence intensity (a.u.).

“ATGTTGATTGCACAATAGAGAATCATCCAACTAGAATGACCGGAGTCACCTAGTGCAG”: the binding signal is 27100 fluorescence intensity (a.u.).
